{"source": "the supplement of paper PMC8728848", "experiment_in_all_cases": "glycan array binding signal (z-score within array); higher = stronger binding", "details_in_all_cases": "glycan notation: IUPAC condensed, linker removed", "key": {"[1]": {"target": "Fuc(a1-2)Gal", "method_in_brief": "(§1)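 Glycan array data came from 3228 arrays in the Consortium for Functional Glycomics database, and only arrays with an available protein sequence were kept. Glycan names were put into IUPAC-condensed notation, and columns mapping to the same glycan were averaged. The binding signal is a within-array Z-score, averaged across arrays of one protein sequence run at different concentrations or buffers and across linkers. A negative Z-score can be read as non-binding.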"}, "[2]": {"target": "Fuc(a1-2)Gal(b1-3)GalNAc", "method_in_brief": "as §1"}, "[3]": {"target": "Fuc(a1-2)Gal(b1-3)GalNAc(a1-3)[Fuc(a1-2)]Gal(b1-4)Glc", "method_in_brief": "as §1"}, "[4]": {"target": "Fuc(a1-2)Gal(b1-3)GalNAc(a1-3)[Fuc(a1-2)]Gal(b1-4)GlcNAc", "method_in_brief": "as §1"}, "[5]": {"target": "Fuc(a1-2)Gal(b1-3)GalNAc(b1-3)Gal", "method_in_brief": "as §1"}, "[6]": {"target": "Fuc(a1-2)Gal(b1-3)GalNAc(b1-3)Gal(a1-4)Gal(b1-4)Glc", "method_in_brief": "as §1"}, "[7]": {"target": "Fuc(a1-2)Gal(b1-3)GalNAc(b1-4)[Neu5Ac(a2-3)]Gal(b1-4)Glc", "method_in_brief": "as §1"}, "[8]": {"target": "Fuc(a1-2)Gal(b1-3)GlcNAc", "method_in_brief": "as §1"}, "[9]": {"target": "Fuc(a1-2)Gal(b1-3)GlcNAc(b1-2)Man(a1-3)[Fuc(a1-2)Gal(b1-3)GlcNAc(b1-2)Man(a1-6)]Man(b1-4)GlcNAc(b1-4)GlcNAc", "method_in_brief": "as §1"}, "[10]": {"target": "Fuc(a1-2)Gal(b1-3)GlcNAc(b1-2)Man(a1-3)[Fuc(a1-2)Gal(b1-3)GlcNAc(b1-2)Man(a1-6)]Man(b1-4)GlcNAc(b1-4)[Fuc(a1-6)]GlcNAc", "method_in_brief": "as §1"}, "[11]": {"target": "Fuc(a1-2)Gal(b1-3)GlcNAc(b1-3)Gal(b1-4)Glc", "method_in_brief": "as §1"}, "[12]": {"target": "Fuc(a1-2)Gal(b1-3)GlcNAc(b1-3)GalNAc", "method_in_brief": "as §1"}, "[13]": {"target": "Fuc(a1-2)Gal(b1-3)GlcNAc(b1-3)[Fuc(a1-2)Gal(b1-3)GlcNAc(b1-6)]GalNAc", "method_in_brief": "as §1"}, "[14]": {"target": "Fuc(a1-2)Gal(b1-3)GlcNAc(b1-3)[Gal(b1-4)GlcNAc(b1-6)]Gal(b1-4)Glc", "method_in_brief": "as §1"}, "[15]": {"target": "Fuc(a1-2)Gal(b1-3)GlcNAc(b1-3)[Neu5Ac(a2-6)Gal(b1-4)GlcNAc(b1-6)]Gal(b1-4)Glc", "method_in_brief": "as §1"}, "[16]": {"target": "Fuc(a1-2)Gal(b1-3)GlcNAc6S", "method_in_brief": "as §1"}, "[17]": {"target": "Fuc(a1-2)Gal(b1-3)[Fuc(a1-4)]GlcNAc", "method_in_brief": "as §1"}, "[18]": {"target": "Fuc(a1-2)Gal(b1-3)[Fuc(a1-4)]GlcNAc(b1-2)Man(a1-3)[Fuc(a1-2)Gal(b1-3)[Fuc(a1-4)]GlcNAc(b1-2)Man(a1-3)]Man(b1-4)GlcNAc(b1-4)GlcNAc", "method_in_brief": "as §1"}, "[19]": {"target": "Fuc(a1-2)Gal(b1-3)[Fuc(a1-4)]GlcNAc(b1-2)Man(a1-3)[Fuc(a1-2)Gal(b1-3)[Fuc(a1-4)]GlcNAc(b1-2)Man(a1-6)]Man(b1-4)GlcNAc(b1-4)[Fuc(a1-6)]GlcNAc(b1-4)[Fuc(a1-6)]GlcNAc", "method_in_brief": "as §1"}, "[20]": {"target": "Fuc(a1-2)Gal(b1-3)[Fuc(a1-4)]GlcNAc(b1-3)[Fuc(a1-3)[Gal(b1-4)]GlcNAc(b1-6)]Gal(b1-4)Glc", "method_in_brief": "as §1"}, "[21]": {"target": "Fuc(a1-2)Gal(b1-3)[Fuc(a1-4)]GlcNAc(b1-3)[Gal(b1-4)GlcNAc(b1-6)]Gal(b1-4)Glc", "method_in_brief": "as §1"}, "[22]": {"target": "Fuc(a1-2)Gal(b1-4)Fuc(a1-3)]GlcNAc(b1-2)Man(a1-3)[Fuc(a1-2)Gal(b1-4)[Fuc(a1-3)]GlcNAc(b1-2)Man(a1-6)]Man(b1-4)GlcNAc(b1-4)GlcNAc", "method_in_brief": "as §1"}, "[23]": {"target": "Fuc(a1-2)Gal(b1-4)Glc", "method_in_brief": "as §1"}, "[24]": {"target": "Fuc(a1-2)Gal(b1-4)Glc6S", "method_in_brief": "as §1"}, "[25]": {"target": "Fuc(a1-2)Gal(b1-4)GlcNAc", "method_in_brief": "as §1"}, "[26]": {"target": "Fuc(a1-2)Gal(b1-4)GlcNAc(b1-2)Man", "method_in_brief": "as §1"}, "[27]": {"target": "Fuc(a1-2)Gal(b1-4)GlcNAc(b1-2)Man(a1-3)[Fuc(a1-2)Gal(b1-4)GlcNAc(b1-2)Man(a1-6)]Man(b1-4)GlcNAc(b1-4)GlcNAc", "method_in_brief": "as §1"}, "[28]": {"target": "Fuc(a1-2)Gal(b1-4)GlcNAc(b1-2)Man(a1-3)[Fuc(a1-2)Gal(b1-4)GlcNAc(b1-2)Man(a1-6)]Man(b1-4)GlcNAc(b1-4)[Fuc(a1-6)]GlcNAc", "method_in_brief": "as §1"}, "[29]": {"target": "Fuc(a1-2)Gal(b1-4)GlcNAc(b1-2)[Fuc(a1-2)Gal(b1-4)GlcNAc(b1-4)]Man(a1-3)[Fuc(a1-2)Gal(b1-4)GlcNAc(b1-2)Man(a1-6)]Man(b1-4)GlcNAc(b1-4)GlcNAc", "method_in_brief": "as §1"}, "[30]": {"target": "Fuc(a1-2)Gal(b1-4)GlcNAc(b1-3)Gal(b1-4)GlcNAc", "method_in_brief": "as §1"}, "[31]": {"target": "Fuc(a1-2)Gal(b1-4)GlcNAc(b1-3)Gal(b1-4)GlcNAc(b1-2)Man(a1-3)[Fuc(a1-2)Gal(b1-4)GlcNAc(b1-3)Gal(b1-4)GlcNAc(b1-2)Man(a1-6)]Man(b1-4)GlcNAc(b1-4)GlcNAc", "method_in_brief": "as §1"}, "[32]": {"target": "Fuc(a1-2)Gal(b1-4)GlcNAc(b1-3)Gal(b1-4)GlcNAc(b1-3)Gal(b1-4)GlcNAc", "method_in_brief": "as §1"}, "[33]": {"target": "Fuc(a1-2)Gal(b1-4)GlcNAc(b1-3)GalNAc", "method_in_brief": "as §1"}, "[34]": {"target": "Fuc(a1-2)Gal(b1-4)GlcNAc(b1-3)[Fuc(a1-2)Gal(b1-4)GlcNAc(b1-6)]GalNAc", "method_in_brief": "as §1"}, "[35]": {"target": "Fuc(a1-2)Gal(b1-4)GlcNAc(b1-3)[Fuc(a1-3)[Gal(b1-4)]GlcNAc(b1-6)]Gal(b1-4)Glc", "method_in_brief": "as §1"}, "[36]": {"target": "Fuc(a1-2)Gal(b1-4)GlcNAc(b1-6)GalNAc", "method_in_brief": "as §1"}, "[37]": {"target": "Fuc(a1-2)Gal(b1-4)GlcNAc6S", "method_in_brief": "as §1"}}, "note": "Some of the results follow."}
{"binder": "LCA (Lens culinaris), P02870 (protein) MASLQTQMISFYLIFLSILLTTIFFFKVNSTETTSFSITKFSPDQKNLIFQGDGYTTKGKLTLTKAVKSTVGRALYSTPIHIWDRDTGNVANFVTSFTFVIDAPSSYNVADEFTFFIAPVDTKPQTGGGYLGVFNSKEYDKTSQTVAVEFDTFYNAAWDPSNKERHIGIDVNSIKSVNTKSWNLQNGERANVVIAFNAATNVLTVTLTYPNSLEEENVTSYTLNEVVPLKDVVPEWVRIGFSATTGAEFAAHEVHSWSFHSELGGTSSSKQAADA", "values": [{"measurement": "glycan array binding signal (z-score)", "setting": "[1]", "result": -0.192}, {"measurement": "glycan array binding signal (z-score)", "setting": "[2]", "result": -0.234}, {"measurement": "glycan array binding signal (z-score)", "setting": "[3]", "result": -0.201}, {"measurement": "glycan array binding signal (z-score)", "setting": "[4]", "result": -0.23}, {"measurement": "glycan array binding signal (z-score)", "setting": "[5]", "result": -0.218}, {"measurement": "glycan array binding signal (z-score)", "setting": "[6]", "result": -0.226}, {"measurement": "glycan array binding signal (z-score)", "setting": "[7]", "result": -0.216}, {"measurement": "glycan array binding signal (z-score)", "setting": "[8]", "result": -0.225}, {"measurement": "glycan array binding signal (z-score)", "setting": "[9]", "result": -0.219}, {"measurement": "glycan array binding signal (z-score)", "setting": "[10]", "result": 0.047}, {"measurement": "glycan array binding signal (z-score)", "setting": "[11]", "result": -0.224}, {"measurement": "glycan array binding signal (z-score)", "setting": "[12]", "result": -0.2}, {"measurement": "glycan array binding signal (z-score)", "setting": "[13]", "result": -0.222}, {"measurement": "glycan array binding signal (z-score)", "setting": "[14]", "result": -0.169}, {"measurement": "glycan array binding signal (z-score)", "setting": "[15]", "result": -0.212}, {"measurement": "glycan array binding signal (z-score)", "setting": "[16]", "result": -0.231}, {"measurement": "glycan array binding signal (z-score)", "setting": "[17]", "result": -0.225}, {"measurement": "glycan array binding signal (z-score)", "setting": "[18]", "result": -0.174}, {"measurement": "glycan array binding signal (z-score)", "setting": "[19]", "result": 0.331}, {"measurement": "glycan array binding signal (z-score)", "setting": "[20]", "result": -0.23}, {"measurement": "glycan array binding signal (z-score)", "setting": "[21]", "result": -0.214}, {"measurement": "glycan array binding signal (z-score)", "setting": "[22]", "result": -0.076}, {"measurement": "glycan array binding signal (z-score)", "setting": "[23]", "result": -0.205}, {"measurement": "glycan array binding signal (z-score)", "setting": "[24]", "result": -0.197}, {"measurement": "glycan array binding signal (z-score)", "setting": "[25]", "result": -0.217}, {"measurement": "glycan array binding signal (z-score)", "setting": "[26]", "result": -0.177}, {"measurement": "glycan array binding signal (z-score)", "setting": "[27]", "result": -0.225}, {"measurement": "glycan array binding signal (z-score)", "setting": "[28]", "result": 0.737}, {"measurement": "glycan array binding signal (z-score)", "setting": "[29]", "result": -0.231}, {"measurement": "glycan array binding signal (z-score)", "setting": "[30]", "result": -0.239}, {"measurement": "glycan array binding signal (z-score)", "setting": "[31]", "result": -0.154}, {"measurement": "glycan array binding signal (z-score)", "setting": "[32]", "result": -0.167}, {"measurement": "glycan array binding signal (z-score)", "setting": "[33]", "result": -0.182}, {"measurement": "glycan array binding signal (z-score)", "setting": "[34]", "result": -0.213}, {"measurement": "glycan array binding signal (z-score)", "setting": "[35]", "result": -0.193}, {"measurement": "glycan array binding signal (z-score)", "setting": "[36]", "result": -0.218}, {"measurement": "glycan array binding signal (z-score)", "setting": "[37]", "result": -0.226}]}
